Screen size: about 150,000 compounds; about 540 (0.36%) showed an effect of 50% or more. The list shows a part of the results.

Here are results for 44 molecules from ChEMBL document CHEMBL4888484, “Replenishing the malaria drug discovery pipeline: Screening and hit evaluation of the MMV Hit Generation Library 1 (HGL1) against asexual blood stage Plasmodium falciparum ,using a nano luciferase reporter read-out” (2022).

This experiment deals with Plasmodium falciparum. Put plainly: Primary screen in NF54 nanoGlo assay, in single point, at 2uM, 72h; a lower Z score goes with more inhibition. Type of experiment: functional, Erythrocyte. The following applies: timepoint 72 hour.
A word on the % Inhibition: it is the drop in the measured response relative to a control, in per cent. `CCOCCNC(=O)CN(C)c1cccc(O)c1`: the “% Inhibition” value is on record as 11% and the Z score is given as -1.59.
Taken in the same sequence, the figures for `CN1[C@@H]2CC[C@H]1CN(C(=O)Nc1ccc(-c3cscn3)cc1)CC2` were 7% and -1.
Taken in the same sequence, the figures for `Cc1ccc(Cn2c(=O)c(C(=O)N3CCOCC3)nn(-c3cccc(Cl)c3)c2=O)cc1` were 3% and -0.45.
For `CCO[C@H]1COC[C@@H]1Nc1ccnc(C(=O)NCc2ccccn2)c1`, the “% Inhibition” value was -1% and the Z score is 0.2.
For the molecule `Cc1noc(-c2cccc(=O)n2CC(=O)NCc2ccccc2)n1`, the “% Inhibition” value is recorded as -6% and the Z score is reported as 0.6.
As to `CN(CC1(c2ccc(Br)cc2)CC1)C(=O)[C@H]1CCn2cncc2C1`, the “% Inhibition” value was -7% and the Z score turned out to be 0.98.
The matching figures for `C[C@H](NC(=O)c1ccnn1C(F)F)C(C)(C)C`: -10% and 1.49.
Turning to `Cc1nc(-c2ccncc2)nc(N2CCO[C@H](C(F)F)C2)c1C`, the “% Inhibition” value worked out at 0% and the Z score was -0.02.
For the molecule `O=C1CC[C@@]2(CCCN(C(=O)c3ccccc3)C2)CN1CCc1c[nH]cn1`, the “% Inhibition” value is given as -6% and the Z score is given as 1.13.
Taken in the same sequence, the figures for `CC(C)c1cc(C(=O)N(CC#N)C(C)C)n(C)n1` were -14% and 1.69.
As to `CCCCN(CC(N)=O)c1cc(C)nc(CC)n1`, the “% Inhibition” value was 2% and the Z score was -0.16.
Regarding `COc1cc2c(-c3ccccc3)c(C)oc2cc1CN1CCC([C@]2(C)NC(=O)NC2=O)CC1`, the “% Inhibition” value is given as -10% and the Z score was 1.83.
For the molecule `COc1ccc(CC(=O)Nc2ccc3nc4n(c(=O)c3c2)CCCC4)cc1`, the “% Inhibition” value was 2% and the Z score was -0.43.
Regarding `Cc1csc(NC(=O)[C@H](Cc2ccccc2)NC(=O)N2CCCC2)n1`, the “% Inhibition” value was -8% and the Z score amounted to 1.02.
The matching figures for `CC(C)C[C@@H](Cc1ccn(C(C)C)n1)C(=O)O`: -4% and 0.52.
On to `CN(Cc1ccccc1)[C@H]1CCOC2(CCN(C(=O)CCC3CCCC3)CC2)C1`, for which the “% Inhibition” value is given as -7% and the Z score was found to be 0.93.
Regarding `COc1ccccc1N1CCN(C(=O)C2CC=CCC2C(=O)O)CC1` (stereo not drawn), the “% Inhibition” value was determined as 1% and the Z score was -0.11.
Taken in the same sequence, the figures for `Nc1ncc(C2(c3cccs3)CCCC2)s1` were -6% and 0.76.
Consider `Cc1cc(CN(C)C(=O)Nc2cccc3cccnc23)no1`, for which the “% Inhibition” value was -7% and the Z score is given as 0.89.
On to `CN1CCCCC[C@H]1C(=O)N1CCC2(CCOCC2)CC1`, for which the “% Inhibition” value was -9% and the Z score was 0.9.
Turning to `CC(C)C[C@H]1NC(=O)[C@H]2CN(S(=O)(=O)c3ccc(Cl)cc3)CCN2C1=O`, the “% Inhibition” value is on record as -7% and the Z score stood at 0.81.
The matching figures for `CN(C)c1noc(CN2CC[C@@]2(C)C2CCCCC2)n1`: -14% and 1.76.
For `CC[C@@H](C(C)C)S(=O)(=O)NC(=O)c1cc(C#N)cn1C`, the “% Inhibition” value is recorded as -5% and the Z score came to 0.56.
As to `Cc1nnc(-c2cccc(NC(=O)C3CCN(C(=O)Cn4cccn4)CC3)c2)s1`, the “% Inhibition” value is recorded as -17% and the Z score is 2.44.
In the case of `Cn1ccc(CCNC(=O)N2CC[C@H](C(=O)N3CCCC3)C2)n1`, the “% Inhibition” value was -12% and the Z score was 1.56.
With `Cc1cc(NCc2ccnn2C)nc(C)n1`, the “% Inhibition” value is on record as -12% and the Z score came out at 1.44.
Taken in the same sequence, the figures for `O=C1N[C@@](O)(c2ccccc2)c2cc3c(cc21)OCCO3` were -12% and 1.86.
With `Cc1n[nH]cc1NC(=O)c1occc1-c1ccccc1`, the “% Inhibition” value is given as -1% and the Z score was determined as 0.31.
Taken in the same sequence, the figures for `Cc1cc(S(=O)(=O)N[C@@H]2COCC[C@@H]2OCCN(C)C)c(C)s1` were -1% and 0.1.
Taken in the same sequence, the figures for `C[C@@]1(C(=O)NCc2ccccc2)Cn2nc(-c3ccccc3)cc2C(=O)N1C1CC1` were 9% and -1.39.
In the case of `Cn1nc(-c2ccc3c(c2)OCCO3)nc1N1CCCCC1`, the “% Inhibition” value is reported as -6% and the Z score is recorded as 0.98.
In the case of `CNC(=O)COC(=O)Cc1ccc(Cl)cc1`, the “% Inhibition” value was found to be 30% and the Z score is recorded as -3.43.
As for `Cc1c(CN2CCC(CCC(=O)Nc3ccccc3Cl)CC2)[nH]c2ccccc12`, the “% Inhibition” value is on record as -5% and the Z score is recorded as 0.81.
Take `COCCn1ccnc1CN(C)Cc1nc(C)c[nH]1`: the “% Inhibition” value is recorded as -16% and the Z score is reported as 1.55.
Turning to `Cc1n[nH]c(C)c1Cc1n[nH]c(=O)n1-c1cccc(Cl)c1`, the “% Inhibition” value is -12% and the Z score is reported as 2.48.
Consider `Cc1ccc2[nH]c(-c3nc(CCN(C)C(=O)c4ccc(F)cc4Cl)no3)c(C)c2c1`, for which the “% Inhibition” value was found to be 4% and the Z score is reported as -0.78.
Taken in the same sequence, the figures for `O=C(O)[C@H](NCc1cnc(C2CC2)s1)c1cccc(Cl)c1` were -14% and 2.56.
Regarding `Cc1ncoc1CNC(=O)N1Cc2cccnc2N2CCC[C@@H]2C1`, the “% Inhibition” value was -6% and the Z score stood at 1.23.
As for `N#Cc1ccc(C(=O)N[C@H]2CN[C@H](C(=O)NCCCc3ccccc3)C2)cc1`, the “% Inhibition” value was found to be 6% and the Z score is recorded as -0.75.
In the case of `COc1ccc(OC)c(S(=O)(=O)NC2CCCC(OC(=O)Nc3ccccc3)C2)c1` (stereo not drawn), the “% Inhibition” value is recorded as -13% and the Z score is recorded as 2.49.
As to `O=C(CCc1nc([C@H]2CCOC2)no1)N1CCCCCC1`, the “% Inhibition” value is on record as -23% and the Z score was found to be 2.36.
Taken in the same sequence, the figures for `N#CC1(c2nc(CC(=O)NC3CCCC3)no2)CCCCC1` were -13% and 1.36.
Regarding `Cc1ccc(-c2noc(NC[C@](C)(O)C(=O)O)n2)cc1`, the “% Inhibition” value is -10% and the Z score is given as 1.38.
With `Cc1cc(=O)c(C(=O)NC2(c3c(F)cccc3F)CCCC2)c[nH]1`, the “% Inhibition” value came to 13% and the Z score is on record as -1.71.
